Assay results: publication PMC10209169
No constants are given. Whether binding was seen depends on the method and setting. For some assays here: In cells and extracts the contact can be indirect. Some entries that bind do so weakly or less than the wild type. For some assays here: Where a sequence is shown, tags or fusion partners need not be part of it.

Amino acid sequences for entries named in this document (tags omitted).
UniProt Q9ULZ3: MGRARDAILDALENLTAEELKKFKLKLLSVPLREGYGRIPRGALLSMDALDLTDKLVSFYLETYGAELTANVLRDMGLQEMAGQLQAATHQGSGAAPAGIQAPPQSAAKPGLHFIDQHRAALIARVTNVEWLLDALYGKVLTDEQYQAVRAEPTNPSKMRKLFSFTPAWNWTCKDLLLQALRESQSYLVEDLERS
UniProt Q9BQ24: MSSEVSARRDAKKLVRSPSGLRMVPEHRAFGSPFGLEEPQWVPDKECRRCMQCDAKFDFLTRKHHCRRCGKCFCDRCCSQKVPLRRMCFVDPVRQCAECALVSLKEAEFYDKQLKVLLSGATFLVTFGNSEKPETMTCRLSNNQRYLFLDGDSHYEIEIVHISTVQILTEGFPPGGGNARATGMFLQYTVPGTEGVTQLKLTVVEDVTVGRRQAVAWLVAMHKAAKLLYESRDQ

Tests used:
Rubicon-GFP [1] = target: T1, Rubicon-GFP (UniProt Q92622); assay: co-IP; GFP co-IP from HUVEC stably co-transduced with Rab5 DN-mCherry and ZFYVE21-GFP or Rubicon-GFP, treated with MG132
T1 sequence: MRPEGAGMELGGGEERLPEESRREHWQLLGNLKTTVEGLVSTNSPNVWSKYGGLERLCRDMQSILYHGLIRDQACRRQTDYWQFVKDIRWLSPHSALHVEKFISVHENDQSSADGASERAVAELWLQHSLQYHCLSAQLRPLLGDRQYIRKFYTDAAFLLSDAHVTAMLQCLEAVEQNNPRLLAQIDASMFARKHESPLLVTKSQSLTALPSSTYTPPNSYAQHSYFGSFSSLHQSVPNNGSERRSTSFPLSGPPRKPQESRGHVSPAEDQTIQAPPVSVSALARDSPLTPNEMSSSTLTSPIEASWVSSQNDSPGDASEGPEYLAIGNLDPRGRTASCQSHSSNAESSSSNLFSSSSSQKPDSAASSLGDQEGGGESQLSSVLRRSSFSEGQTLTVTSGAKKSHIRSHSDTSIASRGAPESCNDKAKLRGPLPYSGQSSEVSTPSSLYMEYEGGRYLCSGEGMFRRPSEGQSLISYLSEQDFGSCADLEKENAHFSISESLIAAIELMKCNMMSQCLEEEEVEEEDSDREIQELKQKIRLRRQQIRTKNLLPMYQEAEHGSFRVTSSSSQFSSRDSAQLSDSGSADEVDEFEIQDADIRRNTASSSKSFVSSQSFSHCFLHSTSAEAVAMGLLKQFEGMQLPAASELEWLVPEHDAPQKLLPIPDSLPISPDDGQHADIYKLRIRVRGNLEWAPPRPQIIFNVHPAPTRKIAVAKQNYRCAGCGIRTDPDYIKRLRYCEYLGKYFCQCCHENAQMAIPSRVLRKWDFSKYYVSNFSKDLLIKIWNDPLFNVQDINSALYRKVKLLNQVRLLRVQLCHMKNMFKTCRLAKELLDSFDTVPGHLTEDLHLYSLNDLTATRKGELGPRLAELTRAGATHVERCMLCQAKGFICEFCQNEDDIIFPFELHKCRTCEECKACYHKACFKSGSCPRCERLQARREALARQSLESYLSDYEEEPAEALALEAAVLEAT

Rubicon-GST (human) [2] = target: T2, Rubicon-GST (human) (UniProt Q92622); assay: ELISA; ELISAs of ZRR complex proteins (ZFYVE21, Rubicon, RNF34) with NLRP3 and ASC, reciprocal, at the concentrations tested (Supplementary Fig 5h; legend not shown); both purified
T2 sequence: T1 sequence

Rubicon-GST (human) [3] = target: T2, Rubicon-GST (human); assay: far-Western, overlay or dot blot; ZFYVE21-GFP (1 μg) as probe on Rubicon-GST, RNF34-His or a 1:1 mixture loaded at 1 μg per lane, 4 °C overnight, non-denaturing conditions; GFP probe as control; both purified
Rubicon-GST (human) [4] = target: T2, Rubicon-GST (human); assay: ELISA; plate-bound bait protein (Nunc MaxiSorp, Na2CO3 pH 9.6, 4 °C overnight), soluble prey at varying concentrations in 5% BSA PBS-T, 4 °C overnight; detected with antibody against the prey, absorbance at 450 nm; both purified
Rubicon-GFP [5] = target: T1, Rubicon-GFP; assay: co-IP; GFP co-IP from HUVEC stably transduced with Rubicon-GFP and transiently transfected with increasing concentrations of RNF34-His plasmid; Western blot
Rubicon-GST (human) [6] = target: T2, Rubicon-GST (human); assay: co-incubation, SDS-PAGE band + LC-MS/MS of the excised band; Rubicon-GST (1 μg) and RNF34-His (1 μg) co-incubated 1:1 in 50 μL (1 h at room temperature or overnight at 4 °C by the legend; room temperature overnight by the methods), resolved by SDS-PAGE; both purified
[7] = target: ASC (protein used in ELISAs) (UniProt Q9ULZ3); assay: ELISA; ELISAs of ZRR complex proteins (ZFYVE21, Rubicon, RNF34) with NLRP3 and ASC, reciprocal, at the concentrations tested (Supplementary Fig 5h; legend not shown); both purified
ZFYVE21-GFP [8] = target: ZFYVE21-GFP (UniProt Q9BQ24); assay: ELISA; plate-bound bait protein (Nunc MaxiSorp, Na2CO3 pH 9.6, 4 °C overnight), soluble prey at varying concentrations in 5% BSA PBS-T, 4 °C overnight; detected with antibody against the prey, absorbance at 450 nm; both purified
ZFYVE21-GFP [9] = target: ZFYVE21-GFP (UniProt Q9BQ24); assay: pull-down; ZFYVE21-GFP on agarose beads; Rubicon-GST (1 μg), RNF34-His (1 μg) or a 1:1 mixture pre-incubated 4 h at room temperature added, overnight at 4 °C, TBS with 3% Tween-20; eluted with 0.1 M glycine pH 3; Western blot under non-denaturing conditions; both purified
[10] = target: T3, Flightless I (human (endogenous in HUVEC)) (UniProt Q13045); assay: co-IP; anti-FliI pulldown from lysates of HUVEC, basal and PRA for the indicated times; RIPA buffer without SDS, protein A/G agarose
T3 sequence: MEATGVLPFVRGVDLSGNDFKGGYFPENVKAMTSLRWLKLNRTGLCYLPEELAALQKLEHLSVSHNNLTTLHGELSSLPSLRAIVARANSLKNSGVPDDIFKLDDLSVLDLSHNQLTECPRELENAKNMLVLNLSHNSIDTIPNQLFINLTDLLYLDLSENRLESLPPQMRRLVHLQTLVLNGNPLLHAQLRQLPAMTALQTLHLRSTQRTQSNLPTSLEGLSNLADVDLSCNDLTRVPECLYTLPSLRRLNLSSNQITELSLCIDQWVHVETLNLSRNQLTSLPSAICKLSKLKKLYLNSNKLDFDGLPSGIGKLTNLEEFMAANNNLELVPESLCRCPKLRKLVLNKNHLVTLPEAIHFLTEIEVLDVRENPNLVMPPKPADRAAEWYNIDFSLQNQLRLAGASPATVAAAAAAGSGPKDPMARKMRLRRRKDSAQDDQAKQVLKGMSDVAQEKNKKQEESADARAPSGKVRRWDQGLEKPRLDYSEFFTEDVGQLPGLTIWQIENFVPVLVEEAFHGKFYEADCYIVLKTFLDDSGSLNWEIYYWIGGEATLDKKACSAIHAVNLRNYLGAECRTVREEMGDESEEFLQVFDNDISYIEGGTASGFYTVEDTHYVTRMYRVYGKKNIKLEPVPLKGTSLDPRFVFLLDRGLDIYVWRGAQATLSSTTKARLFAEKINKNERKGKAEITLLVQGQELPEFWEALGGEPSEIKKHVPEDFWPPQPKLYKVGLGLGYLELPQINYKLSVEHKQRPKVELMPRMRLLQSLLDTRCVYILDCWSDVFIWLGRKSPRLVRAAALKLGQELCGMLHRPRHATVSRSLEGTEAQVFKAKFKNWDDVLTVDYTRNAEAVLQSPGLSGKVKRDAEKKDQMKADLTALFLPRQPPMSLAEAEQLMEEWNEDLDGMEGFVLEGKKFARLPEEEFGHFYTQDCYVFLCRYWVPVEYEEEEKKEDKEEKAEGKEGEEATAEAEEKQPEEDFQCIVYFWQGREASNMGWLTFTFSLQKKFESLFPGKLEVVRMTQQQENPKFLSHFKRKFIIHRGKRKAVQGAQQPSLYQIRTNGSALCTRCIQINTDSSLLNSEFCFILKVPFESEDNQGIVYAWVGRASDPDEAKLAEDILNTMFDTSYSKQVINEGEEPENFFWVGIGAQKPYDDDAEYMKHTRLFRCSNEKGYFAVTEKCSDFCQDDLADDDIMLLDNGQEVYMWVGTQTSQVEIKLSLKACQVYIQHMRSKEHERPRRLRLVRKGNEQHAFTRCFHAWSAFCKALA

[11] = target: T4, Rubicon (human (endogenous in HUVEC)) (UniProt Q92622); assay: proximity ligation; human coronary artery xenografts in SCID/beige mice, PRA for 24 h; Rubicon and RNF34 in the intima (n = 3 per group)
T4 sequence: T1 sequence

ZFYVE21 (from UniProt Q9BQ24 1-234)
binding (Rubicon-GFP [1]): binds

ASC (protein used in ELISAs) (from UniProt Q9ULZ3 1-195)
binding (Rubicon-GST (human) [2]): binds

ZFYVE21-GFP protein (from UniProt Q9BQ24 1-234)
binding (Rubicon-GST (human) [3]): binds | binding (Rubicon-GST (human) [4]): binds

B1: RNF34-His (protein, UniProt Q969K3 1-372)
chain: MKAGATSMWASCCGLLNEVMGTGAVRGQQSAFAGATGPFRFTPNPEFSTYPPAATEGPNIVCKACGLSFSVFRKKHVCCDCKKDFCSVCSVLQENLRRCSTCHLLQETAFQRPQLMRLKVKDLRQYLILRNIPIDTCREKEDLVDLVLCHHGLGSEDDMDTSSLNSSRSQTSSFFTRSFFSNYTAPSATMSSFQGELMDGDQTSRSGVPAQVQSEITSANTEDDDDDDDEDDDDEEENAEDRNPGLSKERVRASLSDLSSLDDVEGMSVRQLKEILARNFVNYSGCCEKWELVEKVNRLYKENEENQKSYGERLQLQDEEDDSLCRICMDAVIDCVLLECGHMVTCTKCGKRMSECPICRQYVVRAVHVFKS
binding (Rubicon-GFP [5]): binds | binding (Rubicon-GST (human) [6]): binds

B2: Rubicon-GST (protein, UniProt Q92622 1-972)
chain: T1 sequence
binding [7]: binds | binding (ZFYVE21-GFP [8]): binds | binding (ZFYVE21-GFP [9]): binds

B3: RNF34 (protein, UniProt Q969K3 1-372)
chain: B1 chain
binding [10]: binds | binding [11]: binds
